Laboratory results: patent publication US11685745B2, “Substituted benzoxazole and benzofuran compounds as PDE7 inhibitors” (Dart NeuroScience, LLC, priority 2017, dated 2023)

Target: N-terminal truncated recombinant human PDE7B enzyme (Homo sapiens (Human), UniProt Q9NP56)
Assay: biochemical

`O=C1Nc2c(Cl)cc3cc(C(=O)NCCc4ccsc4)oc3c2C2(CCCCC2)N1` [Example 395, 5′-Chloro-7′-oxo-N-[2-(thiophen-3-yl)ethyl]-7′,8′-dihydro-6′H-spiro[cyclohexane-1,9′-furo[2,3-f]quinazoline]-2′-carboxamide] showed an IC50 of 100 to 1000 nM.
For `O=C1Nc2c(Cl)cc3cc(C(=O)N4CCN(CC(F)F)CC4)oc3c2C2(CCCCC2)N1` [Example 239, 5′-Chloro-2′-[4-(2,2-difluoroethyl)piperazine-1-carbonyl]-7′,8′-dihydro-6′H-spiro[cyclohexane-1,9′-furo[2,3-f]quinazoline]-7′-one], the IC50 was 10 to 100 nM.
Compound `CC1(CNCc2nc3cc(Cl)c4c(c3o2)C2(CCCCC2)NC(=O)N4)COC1` [Example 86, 5-Chloro-2-({[(3-methyloxetan-3-yl)methyl]amino}methyl)-7,8-dihydro-6H-spiro[[1,3]oxazolo[5,4-f]quinazoline-9,1′-cyclohexane]-7-one] has an IC50 of 10 to 100 nM.
In the case of `O=C1Nc2c(Cl)cc3nc(CNCC(=O)N4CCCC4)oc3c2C2(CCCCC2)N1` [Example 144, 5-Chloro-2-({[2-oxo-2-(pyrrolidin-1-yl)ethyl]amino}methyl)-7,8-dihydro-6H-spiro[[1,3]oxazolo[5,4-f]quinazoline-9,1′-cyclohexane]-7-one], the IC50 is reported as 10 to 100 nM.
`O=C1Nc2c(Cl)cc3cc(C(=O)NCCn4cccc4)oc3c2C2(CCCCC2)N1` [Example 275, 5′-Chloro-7′-oxo-N-[2-(1H-pyrrol-1-yl)ethyl]-7′,8′-dihydro-6′H-spiro[cyclohexane-1,9′-furo[2,3-f]quinazoline]-2′-carboxamide] showed an IC50 of 10 to 100 nM.
`O=C1Nc2c(Cl)cc3nc(CN4CC[C@@H](O)C4)oc3c2C2(CCCCC2)N1` [Example 121, 5-Chloro-2-{[(3R)-3-hydroxypyrrolidin-1-yl]methyl}-7,8-dihydro-6H-spiro[[1,3]oxazolo[5,4-f]quinazoline-9,1′-cyclohexane]-7-one] gave an IC50 of 10 to 100 nM.
`O=C1Nc2c(Cl)cc3cc(C(=O)N4CCN(C5CCCCC5)CC4)oc3c2C2(CCCCC2)N1` [Example 440, 5′-Chloro-2′-(4-cyclohexylpiperazine-1-carbonyl)-7′,8′-dihydro-6′H-spiro[cyclohexane-1,9′-furo[2,3-f]quinazoline]-7′-one] showed an IC50 of 10 to 100 nM.
Work on `COCCN(Cc1cc2cc(Cl)c3c(c2o1)C1(CCCCC1)NC(=O)N3)C(C)C` [Example 471, 5′-Chloro-2′-{[(2-methoxyethyl)(propan-2-yl)amino]methyl}-7′,8′-dihydro-6′H-spiro[cyclohexane-1,9′-furo[2,3-f]quinazoline]-7′-one] yielded an IC50 of 100 to 1000 nM.
Compound `CC(=O)Nc1nc2cc(Cl)c3c(c2o1)C1(CCCCC1)NC(=O)N3` [Example 23, N-(5′-Chloro-7′-oxo-7′,8′-dihydro-6′H-spiro[cyclohexane-1,9′-oxazolo[5,4-f]quinazolin]-2′-yl)acetamide] has an IC50 of 100 to 1000 nM.
`NC(=O)C1CCN(Cc2cc3cc(Cl)c4c(c3o2)C2(CCCCC2)NC(=O)N4)CC1` [Example 556, 1-{5′-Chloro-7′-oxo-7′,8′-dihydro-6′H-spiro[cyclohexane-1,9′-furo[2,3-f]quinazoline]-2′-ylmethyl}piperidine-4-carboxamide] gave an IC50 of 100 to 1000 nM.
In the case of `COC[C@H]1CCN(Cc2nc3cc(Cl)c4c(c3o2)C2(CCCCC2)NC(=O)N4)C1` [Example 135, 5-Chloro-2-{[(3S)-3-(methoxymethyl)pyrrolidin-1-yl]methyl}-7,8-dihydro-6H-spiro[[1,3]oxazolo[5,4-f]quinazoline-9,1′-cyclohexane]-7-one], the IC50 is reported as 10 to 100 nM.
Work on `O=C1Nc2c(Cl)cc3cc(C(=O)N4CCC5(CC4)CC5)oc3c2C2(CCCCC2)N1` [Example 346, 2′-{6-Azaspiro[2.5]octane-6-carbonyl}-5′-chloro-7′,8′-dihydro-6′H-spiro[cyclohexane-1,9′-furo[2,3-f]quinazoline]-7′-one] yielded an IC50 of 100 to 1000 nM.
`O=C1Nc2c(Cl)cc3cc(C(=O)NCCCCO)oc3c2C2(CCCCC2)N1` [Example 257, 5′-Chloro-N-(4-hydroxybutyl)-7′-oxo-7′,8′-dihydro-6′H-spiro[cyclohexane-1,9′-furo[2,3-f]quinazoline]-2′-carboxamide] gave an IC50 of 10 to 100 nM.
For `CN(C)C1CCN(C(=O)c2cc3cc(Cl)c4c(c3o2)C2(CCCCC2)NC(=O)N4)C1` (centres unmarked) [Example 407, 5′-Chloro-2′-[3-(dimethylamino)pyrrolidine-1-carbonyl]-7′,8′-dihydro-6′H-spiro[cyclohexane-1,9′-furo[2,3-f]quinazoline]-7′-one], the IC50 was 100 to 1000 nM.
For `COCC1(NC(=O)c2cc3cc(Cl)c4c(c3o2)C2(CCCCC2)NC(=O)N4)CC1` [Example 354, 5′-Chloro-N-[1-(methoxymethyl)cyclopropyl]-7′-oxo-7′,8′-dihydro-6′H-spiro[cyclohexane-1,9′-furo[2,3-f]quinazoline]-2′-carboxamide], the IC50 was 10 to 100 nM.
For `CN(C)C1CCN(Cc2cc3cc(Cl)c4c(c3o2)C2(CCCCC2)NC(=O)N4)C1` (centres unmarked) [Example 509, 5′-Chloro-2′-{[3-(dimethylamino)pyrrolidin-1-yl]methyl}-7′,8′-dihydro-6′H-spiro[cyclohexane-1,9′-furo[2,3-f]quinazoline]-7′-one], the IC50 was 100 to 1000 nM.
`O=C1Nc2c(Cl)cc3cc(C(=O)NCCn4ccnc4)oc3c2C2(CCCCC2)N1` [Example 423, 5′-Chloro-N-[2-(1H-imidazol-1-yl)ethyl]-7′-oxo-7′,8′-dihydro-6′H-spiro[cyclohexane-1,9′-furo[2,3-f]quinazoline]-2′-carboxamide] showed an IC50 of 100 to 1000 nM.
With `O=C1Nc2c(Cl)cc3cc(C(=O)NCCOc4ccccc4)oc3c2C2(CCCCC2)N1` [Example 352, 5′-Chloro-7′-oxo-N-(2-phenoxyethyl)-7′,8′-dihydro-6′H-spiro[cyclohexane-1,9′-furo[2,3-f]quinazoline]-2′-carboxamide] the IC50 was 10 to 100 nM.
In the case of `CCN(Cc1cc2cc(Cl)c3c(c2o1)C1(CCCCC1)NC(=O)N3)C1CCOC(C)(C)C1` (centres unmarked) [Example 537, 5′-Chloro-2′-{[(2,2-dimethyloxan-4-yl)(ethyl)amino]methyl}-7′,8′-dihydro-6′H-spiro[cyclohexane-1,9′-furo[2,3-f]quinazoline]-7′-one], the IC50 is reported as 100 to 1000 nM.
`O=C1Nc2c(Cl)cc3cc(C(=O)N4CCn5cc(C(F)(F)F)nc5C4)oc3c2C2(CCCCC2)N1` [Example 280, 5′-Chloro-2′-[2-(trifluoromethyl)-5H,6H,7H,8H-imidazo[1,2-a]pyrazine-7-carbonyl]-7′,8′-dihydro-6′H-spiro[cyclohexane-1,9′-furo[2,3-f]quinazoline]-7′-one] gave an IC50 of 10 to 100 nM.
`O=C1Nc2c(Cl)cc3nc(CNCc4cnco4)oc3c2C2(CCCCC2)N1` [Example 171, 5-Chloro-2-{[(1,3-oxazol-5-ylmethyl)amino]methyl}-7,8-dihydro-6H-spiro[[1,3]oxazolo[5,4-f]quinazoline-9,1′-cyclohexane]-7-one] was tested, and the IC50 was 10 to 100 nM.
`COCCN(C(=O)c1cc2cc(Cl)c3c(c2o1)C1(CCCCC1)NC(=O)N3)C(C)C` [Example 270, 5′-Chloro-N-(2-methoxyethyl)-7′-oxo-N-(propan-2-yl)-7′,8′-dihydro-6′H-spiro[cyclohexane-1,9′-furo[2,3-f]quinazoline]-2′-carboxamide] was tested, and the IC50 was 10 to 100 nM.
Compound `O=C1Nc2c(Cl)cc3nc(C(=O)N4CCOCC4)oc3c2C2(CCCCC2)N1` [Example 180, 5-Chloro-2-(morpholine-4-carbonyl)-7,8-dihydro-6H-spiro[[1,3]oxazolo[5,4-f]quinazoline-9,1′-cyclohexane]-7-one] has an IC50 of 100 to 1000 nM.
Compound `O=C1Nc2c(Cl)cc3nc(CNC4(C5CC5)CCOCC4)oc3c2C2(CCCCC2)N1` [Example 150, 5-Chloro-2-{[(4-cyclopropyloxan-4-yl)amino]methyl}-7,8-dihydro-6H-spiro[[1,3]oxazolo[5,4-f]quinazoline-9,1′-cyclohexane]-7-one] has an IC50 of 10 to 100 nM.
`CCn1cnnc1CN(C)C(=O)c1cc2cc(Cl)c3c(c2o1)C1(CCCCC1)NC(=O)N3` [Example 338, 5′-Chloro-N-[(4-ethyl-4H-1,2,4-triazol-3-yl)methyl]-N-methyl-7′-oxo-7′,8′-dihydro-6′H-spiro[cyclohexane-1,9′-furo[2,3-f]quinazoline]-2′-carboxamide] showed an IC50 of 100 to 1000 nM.
For `CCC(=O)N1CCN(Cc2nc3cc(Cl)c4c(c3o2)C2(CCCCC2)NC(=O)N4)CC1` [Example 48, 5-Chloro-2-[(4-propanoylpiperazin-1-yl)methyl]-7,8-dihydro-6H-spiro[[1,3]oxazolo[5,4-f]quinazoline-9,1′-cyclohexane]-7-one], the IC50 was 10 to 100 nM.
`O=C1Nc2c(Cl)cc3nc(C(=O)NCCOC(F)(F)F)oc3c2C2(CCCCC2)N1` [Example 205, 5-Chloro-7-oxo-N-[2-(trifluoromethoxy)ethyl]-7,8-dihydro-6H-spiro[[1,3]oxazolo[5,4-f]quinazoline-9,1′-cyclohexane]-2-carboxamide] was tested, and the IC50 was 10 to 100 nM.
Work on `NC1CCN(Cc2cc3cc(Cl)c4c(c3o2)C2(CCCCC2)NC(=O)N4)C1` (centres unmarked) [Example 568, 2′-[(3-Aminopyrrolidin-1-yl)methyl]-5′-chloro-7′,8′-dihydro-6′H-spiro[cyclohexane-1,9′-furo[2,3-f]quinazoline]-7′-one] yielded an IC50 of 100 to 1000 nM.
In the case of `O=C1Nc2c(Cl)cc3cc(C(=O)N4CCC5C(C4)C5(F)F)oc3c2C2(CCCCC2)N1` (centres unmarked) [Example 376, 5′-Chloro-2′-{7,7-difluoro-3-azabicyclo[4.1.0]heptane-3-carbonyl}-7′,8′-dihydro-6′H-spiro[cyclohexane-1,9′-furo[2,3-f]quinazoline]-7′-one], the IC50 is reported as 10 to 100 nM.
`COc1cccc(CCNC(=O)c2cc3cc(Cl)c4c(c3o2)C2(CCCCC2)NC(=O)N4)c1` [Example 450, 5′-Chloro-N-[2-(3-methoxyphenyl)ethyl]-7′-oxo-7′,8′-dihydro-6′H-spiro[cyclohexane-1,9′-furo[2,3-f]quinazoline]-2′-carboxamide] showed an IC50 of 10 to 100 nM.
For `Cn1ccnc1CNCc1cc2cc(Cl)c3c(c2o1)C1(CCCCC1)NC(=O)N3` [Example 564, 5′-Chloro-2′-({[(1-methyl-1H-imidazol-2-yl)methyl]amino}methyl)-7′,8′-dihydro-6′H-spiro[cyclohexane-1,9′-furo[2,3-f]quinazoline]-7′-one], the IC50 was 10 to 100 nM.
In the case of `CC1(C)C2CN(C(=O)c3cc4cc(Cl)c5c(c4o3)C3(CCCCC3)NC(=O)N5)CC21` (centres unmarked) [Example 375, 5′-Chloro-2′-{6,6-dimethyl-3-azabicyclo[3.1.0]hexane-3-carbonyl}-7′,8′-dihydro-6′H-spiro[cyclohexane-1,9′-furo[2,3-f]quinazoline]-7′-one], the IC50 is reported as 100 to 1000 nM.
